Source: PubChem BioAssay AID1345083 (National Center for Advancing Translational Sciences (NCATS), 2018)
The campaign covered roughly 94,000 compounds. About 6,200 (6.6%) were called active. This list was built around the results that the source calls inconclusive (neither active nor inactive); the mix of calls is not that of the screen. Calls follow the shape of the dose curve; as a rule, active = well fitted inhibition curve with a large enough effect; inconclusive = small, poorly fitted or top-dose-only effect; inactive = flat fitted curve, though single readings scatter. Potencies of inconclusive entries are doubtful fits and often do not repeat.
% is scaled to controls: 0 for no effect and ±100 for the full control effect; potency is read from the fitted curve at half-maximal effect; tags tell the direction and shape of the fitted curve.

Assay: Cytotoxic Profiling in HEK 293 Cell Line of Diverse Libraries Using Quantitative High-Throughput Screening; also: nearly all actives have a fitted effect of over 60% in size
Settings: HEK 293 viability, ATP luminescence (CellTiter-Glo), 48-72 h; activity change, negative = cytotoxicity: at 115 µM (top of the series) unless noted; series mostly up to 115 µM
Procedure, shortened: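 Read-out: CellTiter-Glo ATP luminescence. Cells: HEK 293, 250 cells/well. Exposure: 48 or 72 hr, 37 degree Celsius.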
With `CCn1ncc(NC(=O)Cn2ncc3cc(-c4ccc(C)cc4F)ccc32)n1` the “activity change, negative = cytotoxicity” value was inactive: -54.4%. With `O=C(Cc1ccccc1)N1CCC(N2C(=O)C(OCC3CC3)C23CCCCC3)CC1` (centres undefined) the Potency was inconclusive: 89.1 µM [inhibitor, single point]. With `CN(C)c1ccc2ncc(Nc3cccc(C(F)(F)F)c3)n2n1` the Potency was inconclusive: 100 µM [inhibitor, partial curve, poor fit]. For `CCc1noc(-c2cccn3c(CNC(=O)c4cc(Cl)ccc4F)nnc23)n1`, the “activity change, negative = cytotoxicity” value was inactive: -5.8%. For `CCCC1=Nc2cc(C(=O)NCc3ccccc3Cl)ccc2Sc2ccc(Cl)cc21`, the Potency was inconclusive: 3.55 µM [inhibitor, full curve, poor fit]. In the case of `CC1Oc2ccc(NC(=O)c3ccc(F)cc3)cc2CN(Cc2ccccc2F)C1=O` (centres undefined), the Potency is reported as active: 44.7 µM. For `O=C(NCCN1CCOCC1)c1ccc2nc(-c3ccnc(Cl)c3)oc2c1`, the “activity change, negative = cytotoxicity” value was inactive: -14.5% [at 172 µM]. In the case of `C[C@H]1[C@@H]2[C@@H](O)C([C@H](C)C(=O)NCc3cccs3)CC[C@@]2(C)CC[C@@H]1NC(=O)c1cnccn1` (some centres undefined), the “activity change, negative = cytotoxicity” value is reported as inactive: -9.62%. In the case of `CCC(C)NC(=O)C1COC2(CCC(C)CC2)N1C(=O)c1ccccc1F` (centres undefined), the Potency is reported as inconclusive: 100 µM [inhibitor, single point]. In the case of `COc1ccc(-c2nc(C(C)C)nc3c2CCN(C(=O)Nc2ccc(Cl)cc2)CC3)cc1`, the Potency is reported as inconclusive: 50.1 µM [inhibitor, partial curve, poor fit]. For `COc1ccc(CC(=O)N2CCC(Cc3nc(-c4ccccc4)no3)CC2)cc1Cl`, the Potency was inconclusive: 44.7 µM [inhibitor, partial curve, poor fit]. In the case of `CN(Cc1ccccc1C(F)(F)F)Cc1ccnn1C`, the Potency is reported as inconclusive: 112 µM [inhibitor, partial curve, poor fit]. In the case of `COCCC1CCOC2(CCN(C(=O)CCc3nc4ccccc4[nH]3)CC2)C1` (centres undefined), the Potency is reported as inconclusive: 89.1 µM [inhibitor, single point]. For `COc1ccc(-c2cc(C[C@@H]3C[C@H](NC(=O)c4ccccc4)C3(C)C)no2)cc1`, the Potency was inconclusive: 25.1 µM [inhibitor, full curve]. In the case of `Cc1cccc(N2Cc3c(ncnc3N3CCN(c4ncccn4)CC3)N(C)CC2=O)c1`, the “activity change, negative = cytotoxicity” value is reported as inactive: -21.8%. In the case of `O=C(c1cn[nH]c1-c1ccc(F)cc1)N1CCCC(Cc2noc(-c3ccccc3)n2)C1` (centres undefined), the Potency is reported as inconclusive: 79.4 µM [inhibitor, partial curve, poor fit]. For `CC1=C[C@@H](CNC(=O)c2cnccn2)[C@H](C(C)C)C[C@H]1Cc1nc2ccc(F)cc2[nH]1`, the Potency was active: 70.8 µM. For `Cc1noc([C@@H]2CN(Cc3cccc(Cl)c3)C[C@H]2CO)n1`, the Potency was inconclusive: 89.1 µM [inhibitor, single point]. In the case of `CCc1ccc(CNC(=O)C2Cn3cccc3C(=O)N2)cc1` (centres undefined), the “activity change, negative = cytotoxicity” value is reported as inactive: 4.14%. For `CCOC(=O)C1=C(C)N=C2SC=C(CC(=O)NCc3ccco3)N2C1c1ccccc1Cl` (centres undefined), the Potency was inconclusive: 39.8 µM [inhibitor, partial curve, poor fit]. For `O=C(NC1CCC1)[C@@H]1CCCN1c1ccnc2ccnn12`, the “activity change, negative = cytotoxicity” value was inactive: -27.6% [at 172 µM]. In the case of `O=C(NC1CCCC1)C1CCN(C(=O)c2ccc(-c3cncnc3)cc2)CC1`, the “activity change, negative = cytotoxicity” value is reported as inactive: -4.06%. For `CC1(C(=O)NCC2CC2)CCc2cnc(NCc3ccccc3)nc21` (centres undefined), the Potency was active: 39.8 µM. For `COc1ccc2c(c1)CN(C1CC1)C(=O)CCN2CC(O)CC(F)(F)F` (centres undefined), the “activity change, negative = cytotoxicity” value was inactive: 1.9%. For `N#Cc1cccc(NC(=O)N2Cc3[nH]cnc3C[C@H]2c2nc(-c3ccc(Cl)cc3)no2)c1`, the Potency was inconclusive: 79.4 µM [inhibitor, partial curve, poor fit]. In the case of `COCC1CN(C)CC12CCN(C1CCOCC1)CC2` (centres undefined), the Potency is reported as inconclusive: 89.1 µM [inhibitor, single point]. For `CCc1nc2c(c(-c3ccc(OC)cc3)n1)CCN(Cc1ccc(OC)cc1)CC2`, the “activity change, negative = cytotoxicity” value was inactive: -19.2%. For `O=C(CC(c1ccc(F)cc1)c1cn(Cc2ccccc2)c2ccc([N+](=O)[O-])cc12)N1CCCC1` (centres undefined), the Potency was inconclusive: 17.8 µM [inhibitor, full curve, poor fit]. In the case of `COCCNC(=O)c1nc(-c2ccccc2OC)c2ccccn12`, the Potency is reported as inconclusive: 126 µM [inhibitor, single point]. In the case of `CCCCN1CCN(C(=O)c2cn3ccnc(-c4ccccc4)c3n2)CC1`, the Potency is reported as inconclusive: 89.1 µM [inhibitor, single point]. In the case of `COc1ccccc1CCC(=O)N1CCN(c2cc(-c3cccs3)[nH]n2)CC1`, the Potency is reported as inconclusive: 89.1 µM [inhibitor, single point]. For `COCCc1noc(CC2CCOC3(CCN(C(=O)CCC4CCCC4)CC3)C2)n1` (centres undefined), the Potency was inconclusive: 56.2 µM [inhibitor, partial curve, poor fit]. In the case of `COc1cccc(-c2cccc(C(=O)N3CCCC3C(=O)NCC3CC3)c2)c1` (centres undefined), the “activity change, negative = cytotoxicity” value is reported as inactive: -24.8%. With `Cn1ncc2c(C(=O)N3CCCC3)cc(-c3ccccc3C(F)(F)F)nc21` the “activity change, negative = cytotoxicity” value was inactive: -28%. For `COc1cccc(-c2cccc(CN3CCCC3C(=O)NCc3ccc(F)cc3F)c2)c1` (centres undefined), the Potency was inconclusive: 44.7 µM [inhibitor, full curve, poor fit]. In the case of `CN(C)C(=O)N1CCC(c2nc(C3CCOC3)n[nH]2)CC1` (centres undefined), the “outcome” value is reported as “inactive”. With `Cc1noc(-c2ccco2)c1C(=O)NCc1cccc2ccccc12` the Potency was inconclusive: 44.7 µM [inhibitor, partial curve, poor fit]. In the case of `O=C(c1ccc(F)cc1)N1CCn2c(nn(-c3cccc(Cl)c3)c2=O)C1`, the “activity change, negative = cytotoxicity” value is reported as inactive: -10.6%. For `COc1ccccc1-n1c(=O)c(C(=O)N2CCN(C(=O)C3CCCC3)CC2)nc2cccnc21`, the “activity change, negative = cytotoxicity” value was inactive: 4.35%. For `O=C(Cc1ccc(Cl)cc1)N[C@H]1[C@H](O)[C@H](O)C[C@@H]1c1ccc(C(F)(F)F)cc1`, the Potency was inconclusive: 89.1 µM [inhibitor, partial curve]. For `Cc1cc2cc(-c3c(C)noc3C)nc(N(C)C)c2o1`, the Potency was active: 100 µM. With `COCCNC(=O)[C@@H]1C[C@H](Oc2ccccc2)CN1S(=O)(=O)c1c(C)noc1C` the “activity change, negative = cytotoxicity” value was inactive: -15.1%. In the case of `CCCCC(=O)N1CCc2c(nc3cc(-c4ccccc4Cl)[nH]n3c2=O)C1`, the Potency is reported as inconclusive: 79.4 µM [inhibitor, single point]. With `CC(C)CCN1C(=O)CC[C@]2(C(=O)N(C)Cc3ccco3)CCCC[C@@H]12` the Potency was inconclusive: 44.7 µM [inhibitor, partial curve, poor fit]. In the case of `Cc1ccsc1C(=O)N1CCC2(CC1)N=C(c1ccc(Cl)cc1)NO2`, the Potency is reported as inconclusive: 20 µM [inhibitor, partial curve, poor fit]. For `COc1ccc(-c2nccn3cc(C(=O)NCCc4ccccn4)nc23)cc1`, the Potency was inconclusive: 35.5 µM [inhibitor, partial curve, poor fit]. In the case of `CC(Cn1cccn1)C(=O)N1CCC2(CC1)Nc1ccccc1NC2=O` (centres undefined), the “activity change, negative = cytotoxicity” value is reported as inactive: -2.2%. In the case of `O=C(Cn1ncnn1)N1CCN(Cc2cnc[nH]2)CC(O)C1` (centres undefined), the “activity change, negative = cytotoxicity” value is reported as inactive: 4.75%. For `COc1cccc(CC(=O)N2CCN(C(=O)c3nnn4c3COC(c3ccc(Cl)cc3)C4)CC2)c1` (centres undefined), the “activity change, negative = cytotoxicity” value was inactive: -32.5%. In the case of `COc1ccc(-c2cc(CNC(=O)c3cn(CCN)nn3)no2)cc1`, the Potency is reported as inconclusive: 44.7 µM [inhibitor, partial curve, poor fit]. With `COCC(=O)NC1CCN(Cc2cccc(-c3ccc(SC)cc3)c2)CC1` the Potency was inconclusive: 50.1 µM [inhibitor, partial curve, poor fit]. For `Cc1cnc(CC2CCN(C(=O)C(C)C)C2)n1C1CC1` (centres undefined), the “activity change, negative = cytotoxicity” value was inactive: -16.3%. With `CC1(COCC2CC2)COc2ccc(C(=O)NCc3ccccc3)cc2N1` (centres undefined) the Potency was inconclusive: 70.8 µM [inhibitor, partial curve]. With `COCC1CN(C2CCC2)CC12CCN(C(=O)Cc1cccc(F)c1)CC2` (centres undefined) the Potency was active: 50.1 µM. With `CC(C)(C)NC(=O)N1C[C@@H](Oc2cccnc2)C[C@H]1C(=O)N1CCOCC1` the Potency was inconclusive: 89.1 µM [inhibitor, single point]. In the case of `COCc1nc(C2CC(NC(=O)c3c(F)ccc(C)c3Cl)C2)cc(=O)[nH]1` (centres undefined), the “activity change, negative = cytotoxicity” value is reported as inactive: 0.32%. In the case of `CN1C[C@@H](NS(=O)(=O)Cc2ccccc2)C[C@H]1c1nc(Cc2ccccc2)no1`, the Potency is reported as inconclusive: 89.1 µM [inhibitor, partial curve, poor fit]. For `COc1ccc(CNC(=O)C2CCCN(c3nccc(Nc4ccc(C)cc4)n3)C2)cc1` (centres undefined), the Potency was active: 10 µM. For `Cc1cc(CN2CC(Oc3ccc4c(c3)OCO4)C2)no1`, the “activity change, negative = cytotoxicity” value was inactive: 4.62% [at 172 µM]. For `COC(=O)CN1C(=O)[C@@H]2C[C@@H](O)CN2C2(CN(C3CCN(C(C)=O)CC3)C2)C1=O`, the “activity change, negative = cytotoxicity” value was inactive: 2.22% [at 172 µM]. For `CCCCn1c(CN(C)Cc2cnn(-c3ccccc3C)c2)cnc1S(=O)(=O)CC`, the Potency was inconclusive: 50.1 µM [inhibitor, partial curve, poor fit]. For `COCCn1c(=O)c(C(=O)NCCc2ccccc2F)nc2cccnc21`, the “activity change, negative = cytotoxicity” value was inactive: -14%. For `CN(C)c1ccc(C(=O)N[C@H]2C[C@H]3C(=O)NC[C@@H](CCC(=O)N4CCc5ccccc54)N3C2)cc1`, the “activity change, negative = cytotoxicity” value was inactive: -18.7%. For `O=C(NC1CCN(c2cnn(Cc3ccccc3)c(=O)c2)CC1)C1CCC1`, the “activity change, negative = cytotoxicity” value was inactive: -23.1%. With `Cc1oc2c(c1C(=O)N(C)CCc1ccccn1)CN(Cc1cccc(F)c1)CC2` the Potency was inconclusive: 89.1 µM [inhibitor, single point]. In the case of `Cn1cc(-c2ccnc(N3CCOCC3)c2)c2nc(COc3ccc(Cl)cc3)cn2c1=O`, the Potency is reported as inconclusive: 39.8 µM [inhibitor, partial curve, poor fit]. In the case of `O=C(Cc1cccnc1)N1CC(F)(F)C[C@H]1c1nc(C2CC2)no1`, the “activity change, negative = cytotoxicity” value is reported as inactive: -1.5%. For `COc1ccc(F)cc1-c1ccc(CN2CCC(N[S+](=O)([O-])c3c(C)noc3C)C2)cc1` (centres undefined), the Potency was active: 44.7 µM. For `O=C(Nc1ccc(Oc2ccccc2)cc1)c1cc2n(n1)CC(c1ccc(Cl)cc1)OC2` (centres undefined), the Potency was inconclusive: 8.91 µM [inhibitor, full curve].
